Assay results: paper PMC6919601, “Identification of Plasmodium dipeptidyl aminopeptidase allosteric inhibitors by high throughput screening” (PLoS ONE, 2019)
In all, about 110,000 compounds went through this assay and about 230 (0.21%) showed an effect of 50% or more. The list shows a part of the results.

Molecular target: DPAP1 (Plasmodium falciparum, UniProt Q8IIJ9)
Assay: primary screen, percent inhibition; read by cleavage of a fluorogenic dipeptide substrate; higher = more effect of the substance
Set-up: species or system P. falciparum D10 trophozoite lysates; single well
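Note: 30 min substrate incubation versus DMSO and 10 µM JCP410 controls.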

Sequence of DPAP1 (Q8IIJ9 whole entry, looked up): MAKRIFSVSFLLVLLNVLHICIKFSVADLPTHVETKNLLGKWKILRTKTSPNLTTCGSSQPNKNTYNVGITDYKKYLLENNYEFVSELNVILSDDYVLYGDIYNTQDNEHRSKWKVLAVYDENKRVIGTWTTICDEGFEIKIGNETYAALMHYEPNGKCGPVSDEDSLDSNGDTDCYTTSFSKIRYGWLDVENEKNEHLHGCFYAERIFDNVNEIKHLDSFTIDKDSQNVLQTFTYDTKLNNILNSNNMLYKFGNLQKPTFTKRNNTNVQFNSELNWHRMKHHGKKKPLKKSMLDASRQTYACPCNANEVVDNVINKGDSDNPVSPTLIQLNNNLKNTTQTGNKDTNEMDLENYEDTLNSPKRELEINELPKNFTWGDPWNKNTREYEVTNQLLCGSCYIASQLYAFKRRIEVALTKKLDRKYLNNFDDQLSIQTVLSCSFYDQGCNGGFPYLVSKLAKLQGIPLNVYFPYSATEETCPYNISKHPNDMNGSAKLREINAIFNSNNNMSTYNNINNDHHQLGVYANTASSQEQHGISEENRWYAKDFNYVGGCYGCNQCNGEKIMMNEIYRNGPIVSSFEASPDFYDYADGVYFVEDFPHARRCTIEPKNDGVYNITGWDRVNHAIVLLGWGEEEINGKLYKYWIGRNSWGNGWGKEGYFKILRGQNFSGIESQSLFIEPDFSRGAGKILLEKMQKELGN

Compound	% Inhibition @ 10 uM [%]
CCCCCc1nc(N)c(C#N)c(-c2ccccc2)c1CCCC	-5.9
N#CCNC(=O)c1ccc([N+](=O)[O-])cc1C(=O)N1CCOCC1	-6.98
COC(=O)c1ccc2c(c1)C(=O)/C(=C/c1ccc(OCC(C)C)c(OC)c1)O2	-3.08
COCC(O)CSc1nc2ccccc2o1 (centres unmarked)	-3.04
O=C(Nc1ccccc1)Nc1ccccc1Cl	-3.72
COc1ccc(N2C(=O)NC(NC(=O)c3ccc(F)cc3)(C(F)(F)F)C2=O)cc1 (centres unmarked)	0.189
Cc1ccc(-c2c(C(=O)N3CCC(N4CCCCC4)CC3)oc(=O)c3ccccc23)cc1	1.9
Cc1cccc(C(=O)Nc2ccc(F)cc2)n1	5.29
CN(C)CC(C)(C)CNC1CC2CCC(C1)N2C (centres unmarked)	-0.0953
COc1ccc(OC)c(N/C=C/C(=O)c2ccc(C)cc2)c1	6.78
CN(Cc1ccccc1)c1nnc(N)s1	1.42
CCOC(=O)c1c(C)oc2nc(C)nc(N3CCN(C(=O)c4ccco4)CC3)c12	-1.43
CC(C)(C)OC(=O)N[C@@H](Cc1cc(Cl)c(O)c(Cl)c1)C(=O)NCC#N	-6.46
CN(C)CCNC(=O)C12CC3(C)CC(C)(CC(C)(C3)C1)C2	1.54
O=C(CC(=O)c1ccccc1O)c1ccco1	1.52
COc1ccc(C2CC(=O)NC(SCC(N)=O)=C2C#N)cc1OC (centres unmarked)	-7.3
Cc1ccc(S(=O)(=O)NCCc2nnc3ccc(SCC(N)=O)nn23)cc1	-1.97
CCOC(=O)C1=CN(C(C)C)C=C(C(=O)OCC)C1c1cc(Br)c(OC)c(OC)c1	-8.88
Cc1cc(N2C(=O)CC(N3CCC(c4nc5ccccc5s4)CC3)C2=O)no1 (centres unmarked)	-1.24
NC(=O)C1CCN(c2c(S(=O)(=O)c3ccccc3)cnc3cc4c(cc23)OCCO4)CC1	-0.883
COc1ccc(C2OC(c3ccc(Cl)cc3)=NN2C(C)=O)cc1 (centres unmarked)	-3.74
COC(C(=O)Nc1ccc(Cl)cn1)c1ccccc1 (centres unmarked)	3.81
c1ccc(Nc2nc(N3CCCCC3)nc(N3CCCCC3)n2)cc1	7.96
CC(C)C[C@H](NC(=O)c1cccc(B(O)O)c1)C(=O)NCC#N	-5.2
COc1c(Cl)cc(Cl)cc1C(=O)Nc1ccc(C)cc1	0.716
CC(C)Oc1ccc(NCC(=O)Nc2ccc(F)cc2)cc1	0.964

Compound	% Inhibition @ 10 uM [%]
COc1ccc(C(=O)N/C(=C\c2ccc3c(c2)OCO3)C(=O)NCc2ccco2)cc1	-4.49
O=C(Nc1ccc(I)cc1)c1cccc(F)c1	3
CCC(Oc1ccccc1)C(=O)Nc1cc(OC)c(Cl)cc1OC (centres unmarked)	-4.59
O=C(CCN1C(=O)c2ccccc2Sc2ncccc21)NCCc1ccc(Cl)cc1	2.06
O=C(CCc1nc2ncccc2c(=O)n1Cc1ccc(F)cc1)N1CCc2ccccc2C1	0.953
O=C(Cn1c2c(c(-c3ccccc3Cl)cc1=O)CCC2)NCc1ccc2c(c1)OCO2	0.718
CCc1ccc(CNC(=O)c2cc(O)nc3ccccc23)cc1	-4.97
Cc1nnc(SCC(=O)NCCCc2ccccc2)c2nn(-c3ccccc3)c(C)c12	-3.24
CCc1c(O)n(-c2ccccc2)c(SC)nc1=O	-0.292
O=C(CCN1C(=O)c2ccccc2C1=O)N1CCN(Cc2ccccc2)CC1	-3.9
O=C(Nc1sc2c(c1C(=O)NCC1CCCO1)CCCC2)c1cccs1 (centres unmarked)	2.69
COCCN1C(=O)c2[nH]nc(-c3ccccc3O)c2C1c1ccccc1 (centres unmarked)	-1.35
CC1CCCCN1C(=O)CSc1nc2cccnc2[nH]1 (centres unmarked)	1.63
NC(=O)c1c(NC(=O)COc2ccc(Cl)cc2Br)sc2c1CCCC2	1.08
COc1ccc(C)cc1-n1c(C)cc(/C=C2/C(=N)N3C=CSC3=NC2=O)c1C	-4.84
COc1ccc(/C=C/C(=O)CC(=O)c2ccccc2O)cc1	3.16
Cc1ccc(-c2cc(C(F)F)nc(NCc3ccccc3)n2)cc1	1.85
O=C1NC(=S)N/C1=C/c1ccc2c(c1)OCO2	4.07
COc1cc(C2C3=C(O)CCCC3=NC(C)=C2C(=O)OC(C)C)cc(Br)c1O (centres unmarked)	2.45
COc1ccc(Cl)cc1-n1c(C)cc(/C=C2/C(=N)N3OC(C)=CC3=NC2=O)c1C	0.317
Cc1cc(C)cc(NC(=O)c2cc(C)nn2C)c1	-13.3
O=C(NC1CCCCC1)C1CC1c1ccccc1 (centres unmarked)	-7.34
O=C(O)CCC(=O)Nc1ccccc1C(=O)Nc1cccc(Cl)c1	0.795
Cc1ccsc1CN1CCN(C)CC1	-3.71
COc1ccc(-c2noc(CC(=O)N3CCN(C4CCCCC4)CC3)n2)cc1	4.84
O=C(Cn1cnc2c(nnn2Cc2ccc(F)cc2)c1=O)N1CCOCC1	-2.16

Compound	% Inhibition @ 10 uM [%]
O=C(O)CC(NC(=O)COc1ccccc1)c1ccc(Cl)cc1 (centres unmarked)	1.03
CC1CCCN(C(=O)C2CCN(c3ncnc4c3nc3n4CCCCC3)CC2)C1 (centres unmarked)	3.5
Cc1ccc(N2C(=O)c3ccccc3NC2c2ccc3c(c2)OCO3)cc1 (centres unmarked)	3.67
CC(C)C[C@H](NC(=O)OCc1ccc(CO)cc1)C(=O)NCC#N	1.71
COC(=O)Nc1ccc(NC(C)=O)cc1	27.3
Cc1nc(SCC(=O)N2CCC(C)CC2)c(C#N)c(C)c1C	-8.98
O=C(Nc1cccc2ccccc12)OC1CCS(=O)(=O)C1 (centres unmarked)	-1.69
CC1=NN(C(N)=S)C(O)(c2ccccc2)C1 (centres unmarked)	-1.59
COc1cc(OC)cc(-c2nc3n(n2)C(c2cc(OC)ccc2OC)C(C(N)=O)=C(C)N3)c1 (centres unmarked)	-1.47
COc1ccccc1C(=O)Nc1ccc(F)cc1	3.53
CCOCCCN(Cc1ccco1)C(=O)c1cc2c(s1)-c1ccccc1OC2	-10.5
O=C(CCSCCC(=O)Nc1cccc(F)c1)Nc1cccc(F)c1	0.331
Cc1cc(O)n2nc(NC(=O)c3cccnc3)nc2n1	-1.31
COCCNC(=O)c1ccc(-n2c(-c3ccccc3)nc3cccnc32)cc1	1.14
COc1ccc(C(=O)Nc2cc(Cl)c(O)c(Cl)c2)cc1OC	-0.884
N#Cc1nc(-c2ccccc2)oc1NCC1CCCO1 (centres unmarked)	0.487
CCCCOC(=O)c1ccc(NC(=O)c2ccc(Cl)cc2Cl)cc1	1.48
O=C1CCN(S(=O)(=O)c2ccccc2)c2c1ccc1ccccc21	-1.38
O=C(c1cccc2c1C(=O)N(Cc1c(F)cccc1Cl)C2)N1CCOCC1	0.895
COc1ccc(C(=O)Nc2nccs2)c(OC)c1	-3.35
O=C(NC1CCCCC1)C1CC(=O)N(c2ccccc2)C1 (centres unmarked)	0.983
O=C1N=C(N2CCOCC2)S/C1=C\c1cn(-c2ccccc2)nc1-c1cc2ccccc2o1	3.87
CCc1ccc(-c2nc(CSCC(=O)NCCc3ccccc3)c(C)o2)cc1	2.37
COc1ccc(OC)c(NC(=O)CN(c2ccccc2)S(=O)(=O)c2ccccc2)c1	6.79
CN(Cc1ccccc1)C(=O)Cn1c(=O)c2cccn2c2cccnc21	5.68
COc1ccc(-c2cc(C(F)F)n3ncc(C(=O)N4CCc5ccccc5C4)c3n2)cc1	-3.05

Compound	% Inhibition @ 10 uM [%]
CC(C)CC(=O)NS(=O)(=O)c1ccc(NC(=O)C2CCCCC2)cc1	2.02
COc1ccc(Nc2ccccc2)c(C)c1	1.38
COc1ccc(C(=O)O)cc1-c1ccc(C(=O)N[C@@H](CC(C)C)C(=O)NCC#N)cc1	-1.82
c1ccc(CNc2ccc(CNc3nc[nH]n3)cc2)cc1	1.84
COCCn1c(=N)c(S(=O)(=O)c2ccc(C)cc2)cc2c(=O)n3ccccc3nc21	-0.994
Cc1ccc(C2Nc3cc(C)c(C)cc3N=C3CC(C)(C)CC(O)=C32)o1 (centres unmarked)	-0.968
CN(C)CCN(Cc1cccs1)S(=O)(=O)c1ccc(-c2cc(C(F)(F)F)no2)s1	2.58
COc1ccc(Cl)cc1N(Cc1ccccc1)Cc1ccccc1	-2.19
Cc1nn(CC(=O)N2CCN(Cc3ccccc3)CC2)c(=O)c2cc3sccc3n12	1.8
O=C1CC(N2CCN(c3ccc(F)cc3)CC2)C(=O)N1c1ccc(F)cc1 (centres unmarked)	0.912
O=C(O)C1CCCCC1C(=O)N1CCN(c2ccccc2)CC1 (centres unmarked)	3.93
O=C(c1c[nH]c2c1ccc1ccccc12)C(F)(F)F	1.66
O=C(Cn1ccc2cc(S(=O)(=O)N3CCCCC3)ccc21)N1CCOCC1	-0.899
O=C(CCn1c(=O)c2sccc2n(CC(=O)NCc2ccco2)c1=O)NCc1ccccc1	-5.09
CCC(C(=O)NCCCc1ccccc1)n1nc(C)n2c(cc3sccc32)c1=O (centres unmarked)	3.4
CCc1nc2sc3c(c2c(=O)o1)CCCCC3	-11
CCCC(=O)Nc1ccccc1NC(=O)COc1ccc(Br)cc1Cl	-3.49
O=C(c1ccccc1)c1ccc(NC(=O)C(F)(F)F)cc1	-5.46
O=C(NCc1ccco1)c1ccc2c(O)c(S(=O)(=O)c3ccccc3)c(O)nc2c1	8.23
CSc1ccc(/C=C(\C#N)c2nn(-c3ccccc3)c(N)c2C#N)cc1	4.1
CC(=O)Nc1ccc(-c2nc3c(Cl)cc(Cl)cc3[nH]2)cc1	-3.12
Cc1c(Cl)cccc1N(CC(=O)NCc1cccnc1)S(=O)(=O)c1ccccc1	-3.5
CCc1ccc(CNC(=O)C2CCCN(S(C)(=O)=O)C2)cc1 (centres unmarked)	6.86
